Test results: PubChem BioAssay AID463173 (ICCB-Longwood Screening Facility, Harvard Medical School, 2010)
Among all 52,000 compounds or so, about 1,700 (3.3%) were called active. Cut-off read from the data, not from the text of the source: active = survival mostly below about 52% (no sharp cut-off); inactive = mostly above about 56%. The list shows a part of the results.

These compounds were tested on Wild type (assay: growth inhibition of S. aureus wild type versus tarO mutant, primary screen, teichoic acid synthesis inhibitors, RN4220, OD600 (AID 463173)). Settings: S. aureus RN4220 wild type/DeltatarO growth, OD600, 18 h, stronger effect = lower value, screened at 18.75 µg/mL (by protocol).
In the case of `CCCC(=O)Nc1cc2nn(-c3ccccc3)nc2cc1C`, the survival is reported as inactive: 82%. For `CCc1ccccc1NC(=O)Nc1c(C)n(C)n(-c2ccccc2)c1=O`, the survival was inactive: 72%. With `Cc1ccc(C)c(Cn2c(=O)n(CCCCC(=O)NCc3ccc4c(c3)OCO4)c(=O)c3ccccc32)c1` the survival was inactive: 110%. With `CCOC(=O)c1c(C)[nH]c(C)c1S(=O)(=O)N1CCC(C(=O)Nc2ccc(OCC)cc2)CC1` the survival was active: -3%. For `CCCCn1cc(S(=O)(=O)c2cc(C)ccc2C)c(=O)c2cc(F)c(N3CCC(C)CC3)cc21`, the survival was inactive: 80%. For `CC(C)OCCCNc1ncnc2sc3c(c12)CCCC3`, the survival was inactive: 79%. In the case of `COc1ccc(C(=O)NCC(c2ccco2)S(=O)(=O)c2ccc(F)cc2)cc1` (configuration not stated), the survival is reported as inactive: 74%. `N#Cc1cc2c(cc1C#N)Oc1ccccc1O2` was tested, and the survival was inactive: 108%. In the case of `CCc1cccc(NC(=O)CN(c2ccc(C)c(C)c2)S(=O)(=O)c2ccsc2C(=O)OC)c1`, the survival is reported as active: -6%. For `Cc1ccc(C)c(N2CCN(C(=O)CN3C(=O)COc4ccc(S(=O)(=O)N5CCCC5)cc43)CC2)c1`, the survival was inactive: 85%. `CCCCN(CCCC)CCCNC(=O)Cn1cc2c(n1)-c1c(oc(C(=O)N3CCCC3)c1C)CC2` was tested, and the survival was inactive: 87%. `O=C(NCc1ccco1)C1CC(c2ccccc2O)=NO1` (configuration not stated) was tested, and the survival was inactive: 128%. `CSc1ncc(C(=O)Nc2ccccc2C(F)(F)F)c(-c2ccccc2)n1` was tested, and the survival was inactive: 121%. With `CC(C)C(c1nnnn1Cc1ccccc1)N1CCN(c2ccccc2)CC1` (configuration not stated) the survival was inactive: 104%. `CCCc1nc2nc(C)c(NS(=O)(=O)c3ccc(CC(C)C)cc3)c(=O)n2[nH]1` was tested, and the survival was inactive: 83%. In the case of `CCOC(=O)c1ccc(N2C(=O)c3[nH]nc(-c4ccc(C)cc4)c3C2c2cccs2)cc1` (configuration not stated), the survival is reported as inactive: 77%. In the case of `N#C/C(=C/Nc1cccc2ccccc12)c1nc2ccccc2o1`, the survival is reported as inactive: 103%. In the case of `CCCn1c(CCC(=O)Nc2cc(C(=O)OC)cc(C(=O)OC)c2)nc2cccnc21`, the survival is reported as inactive: 119%. For `Cc1ccccc1CCNC(=O)c1ccc2c(c1)nc1n2CCOC1`, the survival was inactive: 56%. `COC(=O)c1scc(-c2ccc(C)cc2)c1S(=O)(=O)Nc1cc(Cl)c(OC)cc1OC` was tested, and the survival was inactive: 73%. In the case of `CCCCOc1ccc(Cn2c(=O)sc3ccccc32)cc1OC`, the survival is reported as active: -5%. In the case of `CCCn1c(CCC(=O)Nc2cc(OC)cc(OC)c2)nc2cccnc21`, the survival is reported as inactive: 79%. `CCC(=O)N1c2ccccc2CC1C(=O)NCCc1cc(OC)c(OC)c(OC)c1` (configuration not stated) was tested, and the survival was inactive: 152%. `O=C(NCc1ccc2c(c1)OCO2)c1cccc(C(=O)NCc2ccc3c(c2)OCO3)c1` was tested, and the survival was inactive: 107%. With `Cc1cc(NC(=O)CCn2c(=O)c3cccn3c3cccnc32)ccc1Br` the survival was inactive: 113%. In the case of `CC1=C(C)C(=O)N(c2ccccn2)C1=O`, the survival is reported as inactive: 111%. In the case of `Cc1ccc(NC(=O)C2CCCN(S(=O)(=O)c3cccc4nsnc34)C2)cc1C` (configuration not stated), the survival is reported as inactive: 81%. For `COc1ccc(-n2c(=O)c3sc4ccccc4c3n(C)c2=O)cc1`, the survival was inactive: 83%. `CCCN1CCN(c2nnc(-n3cccc3C(=O)Nc3cc(Cl)ccc3C)s2)CC1` was tested, and the survival was inactive: 82%. With `CCSc1ncc(Cl)c(C(=O)Nc2nc3ccc(S(C)(=O)=O)cc3s2)n1` the survival was inactive: 106%. For `COc1cccc(/C=N/c2nc3ccccc3n2C)c1O`, the survival was inactive: 106%. With `Cc1ccc(-c2nc(CS(=O)CC(=O)NCc3ccccc3Cl)c(C)o2)cc1` (configuration not stated) the survival was inactive: 72%. For `CCOC(=O)Cc1ccc(NC(=O)N2CCSc3ccccc32)cc1`, the survival was inactive: 70%. `COc1ccccc1NC(=O)CSC1=Nc2ccccc2C2=NC(CCC(=O)NCc3ccco3)C(=O)N12` (configuration not stated) was tested, and the survival was inactive: 72%. For `CCCN(CCC)CCCNC(=O)C1CCCN(Cc2nc(-c3ccc(Cl)cc3)oc2C)C1` (configuration not stated), the survival was inactive: 126%. In the case of `COCCNC(=O)C1CCN(C(=O)c2cc3sccc3n2Cc2ccc(Cl)cc2)CC1`, the survival is reported as inactive: 112%. In the case of `COc1ccc(C2(Nc3cccc(F)c3)C(=O)c3ccccc3C2=O)cc1`, the survival is reported as inactive: 58%. `CCOc1ccc2nc(SCC(=O)Nc3ccc(F)cc3)nc(-c3ccccc3)c2c1` was tested, and the survival was inactive: 122%. In the case of `O=c1ccc2cc(S(=O)(=O)Nc3ccc(F)c(Cl)c3)ccc2[nH]1`, the survival is reported as inactive: 85%. With `Cn1nnc2c(NCc3ccc(Cl)cc3)ncnc21` the survival was inactive: 88%. In the case of `COc1cccc(CNC(=O)Cc2c(C)c3c(cc(C)c4c(C)c(C)oc43)oc2=O)c1`, the survival is reported as inactive: 89%. With `O=S(=O)(c1ccc(Cl)cc1)c1nc(-c2cccs2)oc1SCc1ccc(F)cc1` the survival was inactive: 68%. With `Cc1ccc2oc(-c3ccc(NC(=O)C(F)(F)F)cc3)nc2c1` the survival was inactive: 113%. For `COc1ccc(OC)c(NC(=O)C2Cc3ccccc3CN2S(=O)(=O)c2ccc(F)cc2)c1` (configuration not stated), the survival was inactive: 88%. In the case of `CC1=C(C(=O)Nc2ccc(Cl)cc2)C(c2ccccc2F)n2nc(SCc3cccc(Cl)c3)nc2N1` (configuration not stated), the survival is reported as inactive: 83%. For `Cc1ccc(-n2ncc3c(NC(C)c4ccccc4)ncnc32)cc1` (configuration not stated), the survival was inactive: 73%. For `COc1ccc(NC(=O)Cn2c(=O)n(Cc3ccccc3OC)c(=O)c3cccnc32)cc1Cl`, the survival was inactive: 93%. With `COc1ccc(-n2nc3cc(C)c(NC(=O)c4ccc5c(c4)OCO5)cc3n2)cc1` the survival was inactive: 107%. With `CCc1ccc(CNC(=O)c2cc3n(n2)CCCN(Cc2ccccc2)C3=O)cc1` the survival was inactive: 134%. `Cc1ccc(Cn2c(=O)n(CCc3ccc(Cl)cc3)c(=O)c3ccccc32)cc1` was tested, and the survival was inactive: 39%. With `Cc1ccc(Nc2c(-c3ccc(C)s3)nc3ccccn23)cc1` the survival was inactive: 31%. In the case of `Cc1cc(Cl)ccc1NC(=O)Cc1ccc(NC(=O)N2CCCCc3ccccc32)cc1`, the survival is reported as inactive: 68%. For `COc1ccc(C)cc1NC(=O)C1CCN(S(=O)(=O)c2cc(Br)cc3c2N(C(C)=O)CC3)CC1`, the survival was inactive: 97%. For `CCOC(=O)N1CC=C2C(C#N)=C(N)C(C#N)(C#N)C(c3ccc(CC)cc3)C2C1` (configuration not stated), the survival was inactive: 98%. In the case of `O=C(Cn1c(-c2ccccc2)noc1=O)Nc1cccc(Cl)c1Cl`, the survival is reported as inactive: 105%. With `O=C(CSc1nnc(-c2ccc(Cl)cc2)o1)c1ccc([N+](=O)[O-])cc1` the survival was inactive: 60%. For `CCN1C(C)=C(C)S/C1=C1\SC(=S)N(C2CCCCC2)C1=O`, the survival was inactive: 110%.
